According to patent publication US20210060169A1 (Kyowa Kirin, published 2021):

How the values were obtained:
IL-2 (P) = target: T1, IL-2 (P); assay: SPR (Biacore T-100), receptor-Fc captured by anti-human Fc, IL-2 as analyte, 1:1 binding model
T1 construct: bought; also called IL-2 produced by Peprotech; commercially available IL-2

Wild-type IL-2 = target: T2, Wild-type IL-2 (human); assay: as above
T2 construct: also called wild-type mature human IL-2

B1: human CD122 ECD-Fc-Avitag-8His / human CD132 ECD-Fc-FLAG (Fc fusion)
chain: not shown
notes: in the assay a heterodimer of the two chains; also called hIL-2RβγECD-Fc; IL-2Rβγ ECD-Fc
IL-2 (P)
  Kd: 0.209 nM
Wild-type IL-2
  Kd: 0.215 nM
